The source of these data is PubChem BioAssay (NCI).

Each structure is given as a SMILES string. “And” between values parts separate entries of the source, which are not always exact repeats. Equal entries are not always repeated.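 Briefly, cells in 96-well plates were exposed to five compound concentrations for 48 h, and endpoints were estimated by linear interpolation. GI50 = concentration required for 50% inhibition of growth. TGI denotes the concentration required for complete inhibition of growth.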

The experiment deals with NCI-H322M lung. Nature of the experiment: DTP human tumour cell line panel, 48 h.
A word on the TGI: it is the concentration giving total growth inhibition. High values mean less potent growth arrest, low ones more potent growth arrest. For `Oc1cccc2ccc(Br)nc12`, the TGI was over 100 µM.
Same read-out and setting: then `COc1ccc(C2=NN(C(=O)c3ccc(Cl)cc3)C(O)(c3cc(F)c(Cl)cc3Cl)C2)cc1` (stereo not given), with over 100 µM; and `COc1cc(/C=C/c2ccnc3ccccc23)cc(OC)c1OC`, with 32.5 µM and > 100 µM.
`CCOC(=O)C1=NNC(C(=O)c2ccccc2)C1c1ccccc1` (stereo not given) gave a TGI of 33.3 µM.
`Cc1cc(S(=O)(=O)NC2=NCC(C)(C)CN2)c(S)cc1Cl` had a TGI of over 100 µM.
Same read-out and setting: to `Cc1ccc(CN2CCN(Cc3ccc(C)o3)C(C)C2)o1` (stereo not given) belongs over 100 µM; to `O=C1CCc2ccc(O)c(c2)Oc2ccc(cc2)[C@@H]2O[C@@H]2CO1`, over 100 µM.
As to `CC[P+]1(c2ccccc2)CCCCC1`, the TGI was over 100 µM.
Molecule `CC1N=C(c2ccccc2)OC1=O` (stereo not given) had a TGI of over 100 µM.
`Nc1ncnc2c1ncn2CCCCC(=O)O` yielded a concentration for total growth inhibition (TGI) of over 100 µM.
`CC(=O)OCC1OC(n2c(O)c(N=NC(N)=S)c3ccc([N+](=O)[O-])cc32)C(OC(C)=O)C1OC(C)=O` (stereo not given) came in with a TGI of 73.5 µM.
In turn, `CC(=O)OCC1=CC2CCC3C(C)(CCC[C@]3(C)COC(C)=O)C23CC[C@H]1C3` (stereo not given in full) had a TGI of over 100 µM.
`COc1cc(/C=N/n2c(C)n[nH]c2=O)cc(OC)c1OC` showed a TGI of over 100 µM.
Take `Cc1cn(C2CC(O)C(COC(N)=O)O2)c(=O)[nH]c1=O` (stereo not given): the TGI was over 100 µM.
One may read the GI50 as the concentration at which growth is held to half of that of the control. Turning to `O=C(CCl)Nc1ccc(Cc2ccc(NC(=O)CCl)cc2)cc1`, the GI50 was 2.08 µM and the TGI is 5.71 µM.
As to `O=C(CC1Sc2ccccc2NC1=O)NNc1ccc(F)cc1` (stereo not given), the GI50 was over 100 µM and the TGI was over 100 µM.
With `CCS(=O)(=O)N1CCN(c2ccc(Nc3ncc(C(N)=O)c(NC4CC4)n3)cc2)CC1`, the GI50 is 12.3 µM and the TGI is over 100 µM.
`CC(=O)c1cccc(Nc2nc3ccccc3c3[nH]c4ccccc4c23)c1` yielded a total growth inhibition concentration (TGI) of over 100 µM.
For `OCC1OC(n2cnc3c(NCc4ccco4)ncnc32)C(O)C1O` (stereo not given), the GI50 is 0.441 µM and the TGI stood at 64 µM.
For the molecule `CCOC(=O)c1csc(-c2cn(C)c3c2C(=O)C(OC)=CC3=O)n1`, the TGI was over 100 µM.
`Nc1ncc2c(n1)-c1ccccc1OC2N1CCOCC1` (stereo not given): the TGI was over 100 µM.
Take `C=C1C(C(=O)O)C1C(=O)O` (stereo not given): the concentration for total growth inhibition (TGI) was over 100 µM.
`O=C(O)CCC(NC(=O)c1ccc(Oc2nc3ccccc3nc2-c2ccccc2)cc1)C(=O)O` (stereo not given) registered a TGI of over 100 µM.
As to `CCOP(=O)(OCC)C(NC(c1ccccc1)c1ccccc1)c1ccc(C(C)C)cc1` (stereo not given), the GI50 was 5.13 µM and the TGI stood at 18.7 µM.
With `CCOC(=O)CCn1cnc(N)n1`, the TGI is over 100 µM.
On the same count and under the same terms, to `COC1(C)CNCC(C)(C)NC(=O)C(C)(OC)CNCC(C)(C)NC1=O` (stereo not given) belongs over 100 µM.
With `Cc1ccc(NC2=CC(=O)C(=O)c3ccccc32)cc1`, the GI50 is 1.83 µM and the TGI is 5.31 µM.
On to `COc1cccc(CCn2c(N)c(C#N)c3ccc([N+](=O)[O-])cc3c2=O)c1`, for which the TGI was over 46.4 µM.
Regarding `Cc1ccc(S(=O)(=O)NNC(=O)Nc2ccc([N+](=O)[O-])cc2)cc1`, the TGI was over 100 µM.
